# In the RNAGym collection of RNA variant scans (doi:10.7554/elife.90254):
# Read counts are not given, so values of variants with three or more changes are uncertain.
# B1: LINE1-mini (parent)
# chain: GGCAGAGCUCAACACAGCGUGGCAAAGUGGCUGUGGCUAGACUGCC
# Variants of: B1
# Experiment: self-cleavage, relative activity (ratio to wild type); higher = more cleavage; in vitro, sequencing; the parent is a self-cleaving ribozyme
row,Variant,self-cleavage
1,G33A A39G U43C,0.03
2,A26G G30U A41C,0.02
3,C3G C18G G27A C45A,0.13
4,G17A G21C U34G,0.01
5,C3U G29U C42G,0.03
6,G1U C10A G27C G44U,0
7,C10A G17C A26C U43G,0
8,G22U G29A C37G,0.04
9,C8U U20A A24G U32A U34C C45U,0.04
10,C10A C18U C23U G35C A41C,0.01
11,C10G A14G G36C A39G,0.01
12,G2A C15U A26C G27A,0.35
13,G19U C31A G36A,0.07
14,G2A G40U U43G,0.01
15,C3A A14U U20G C31A U43C,0.05
16,G2C C10A G22A,0.46
17,C3U U20G C37U,0.05
18,G2C C15A U20A C23G C31U G44C,0
19,G5U G21A U34G,0
20,G5U C8A G21U,0.6
21,A6G U32C C45U,0.04
22,U20A G22U A41C C45G,0.06
23,G22A G27U U43A G44U,0.09
24,C23G A24C A39G,0.05

row,Variant,self-cleavage
1,C13A A39U C46U,0.07
2,C3U C15A U32C C42U,0.04
3,C15G G22C C23A A25C C45A,0.01
4,C10A U20C G29C U34C,0.02
5,A11G G21C G40U,0.02
6,G21U G36C C46A,0.08
7,G1U A12C U20C U28G C46G,0
8,G19U C42U U43C,0.07
9,A4C A11G G33U,0.03
10,G1C A12G C46U,0
11,A16G G29A C42A,0
12,G2C A16C C42A,0
13,G7U C31A G40C U43C G44C,0.05
14,G1C C8A G30U,0.06
15,A11C C15U G21C C42U,0.01
16,U9G A39C C42A,0.03
17,C3G A4G G21A G22C U28C G30A,0.11
18,C13U A26U G29A,0.19
19,G2U G7U U32A,0.04
20,G2C C10U G29C,0.03
21,A4G C10U A14U,0.16
22,G17U U38G G40U,0.05
23,G27C G30A G35C,0.13
24,G1U C8A A16G U20G G35A G36A,0.03

row,Variant,self-cleavage
1,C10A G21C U34C,0.28
2,G2A A16U G30U,0.08
3,U9A C10U A24U,0.02
4,C13U A14C A16U G21A C23G,0.31
5,A6C C23G G40C,0
6,A14U G22A G36A G44U,0.21
7,G21U U28A G29U G36U,0.03
8,G5U A12U A14G U34G C42G,0.01
9,G5A A6C U28A G29C,0.14
10,G7C G22A G35C C45G,0.04
11,C3G C13A U28C,0.67
12,A6U C13U G35C G40A,0.11
13,A11G G30U C31A U38C A41U,0.01
14,C10U A11C A39G,0.01
15,G2C C10G A12U C45U,0.01
16,C8A A11G G35A,0.04
17,C13U C15A G21C G22C A25C,0.02
18,C18U A26G G35A C45U,0.03
19,C15A G17A C42A,0.04
20,A12C C15A G27C G29A G33A A39G,0.02
21,C18G C37G C46U,0.04
22,G17U A25C C46G,0.06
23,U9G G17C G30U G44C,0.01
24,G1A A12U G17A A41U,0.03

row,Variant,self-cleavage
1,G7A U28C G29C G30U U34G,0.22
2,G1A G22C U32A A39G,0.09
3,A11C A24U U34A,0
4,A14C A16U G29U A41U,0.15
5,G5U G21C G36C,0.02
6,C13U G19U G36A,0.23
7,A6U A39C U43C,0.12
8,G2U U9G A14G C45A C46A,0.01
9,C3U U9C C10A A11U C15A U34A C42U,0.01
10,G29A C37U U38G,0.06
11,C8U C10G G35U,0.02
12,G7C U20G G21A C37A G40U,0.11
13,C10A C18U A26C U38A,0
14,G1A A4C A16U A25C C31G,0.04
15,G2C A14U G27A,0.07
16,C8U C13U C15A A16G G22U G29A G30A U32C G36C,0.13
17,C13U C23U A24G A26U,0.09
18,A11U G21A A26C G29C G30A U32A G36A C42U C46G,0
19,C3G G40U C46A,0.11
20,U32A G35A G40U,0.05
21,A12U C15G G29U U32G,0.02
22,A14G A16C G29U G33U G36A,0.04
23,C3G C8A C10G,0.03
24,C15A C18U C46U,0.14

row,Variant,self-cleavage
1,G5U A11C G22U G29U U38A C46A,0
2,C18A A25U U34A,0.03
3,C10A A11U A14U G44U,0.01
4,G7A C31G G33A U34A,0.06
5,C13U G35U C37U,0.02
6,C8G C13G A26G G35A C42U,0.09
7,C13A G27A C46G,0.08
8,G1U G5U A41C C42A,0.04
9,G2C G7A C15A U34C,0.03
10,C10A G30U U38A,0.06
11,C3U A11C G30U,0.05
12,C3U G7C G29C C45G,0
13,C10A G19C U28C U43C,0
14,A14C C18U G19U,0.05
15,A14U G35C C45A,0.14
16,A6G U9C C10U G29U G30U,0.02
17,A16G C42A C46A,0.01
18,C18A G30U G40A,0.11
19,C8A A26G A39G,0.03
20,A25U U32A G40U,0.05
21,C23A G33U G35A,0.33
22,G21U C37A A39U C42U,0.08
23,C3U G7C A24G,0.07
24,A14G U34A U43C,0.02

row,Variant,self-cleavage
1,A4G U9A A16C G21C G29C,0.16
2,C10A C15U G21U U28C C31G,0.02
3,G7C A11G G17C G22C A24G A25C C37U G44C,0
4,G5A G30C U34G A41G,0.02
5,G5C C15U G30C C37A C42G,0
6,U28A G30C G33U G35C G44U,0.26
7,C10A C18A C42U,0
8,G2C G5U C10A C23U G33U,0.03
9,G1A G21U G40A C42G,0.08
10,A6G A16G U20A C23U,0.12
11,C18U U28A G30A C31A G33A,0.02
12,A6U C8G A41G G44A,0.09
13,A4G U9G G22A C45U,0.09
14,C18U A24C U34A G36C,0.05
15,C18A G19A G33A,0.09
16,G5C C18G G27C A39U,0.05
17,G7U C10G C23G,0.01
18,G21A A25G G27C C42G C46G,0.26
19,G2C C8A C10A U28G U32A,0
20,C10A A16C G30U,0.01
21,A24U C31G C45A,0.07
22,C23A G27U U34G U38A,0.28
23,U9G G22C G30A U32G C37G,0.02
24,G5U U9G C18G G22U C23A,0.05

row,Variant,self-cleavage
1,G5C A6G A14U C23U C31U G33U U38G,0.11
2,G2U A6G C10U G27A U32A A39C,0
3,G5U G7C A25C G35U C42G,0.03
4,C8U A25G U43A,0.5
5,G1A G22A U28G G30U G36A,0.19
6,A4C C23A G29U U38G,0.02
7,G7A C15G G22A G35A C37A U38A U43C,0.2
8,A6U G27A U32G C45A,0.11
9,G5C C8G A11U G29C,0.01
10,C8G A11C C37U A39U,0.01
11,G17C C18A C31A,0.08
12,G1C C3U A11U G33C G36U,0.01
13,G5A G17A G21U G27C,0.08
14,A4U C8A A24C A25U G36U A39C,0.11
15,C18U G19A G27U G40U,0.01
16,C13A C37U G40U,0.18
17,G1U C10A G27C U28C G33U G40A,0.03
18,C10U C18G U20A G33C,0.03
19,G5U C23G A41G,0.28
20,G1U C8G A12C G30A,0.02
21,G7U G21U C23U C42U,0.11
22,G2U C10U A11U G33U G40U,0.03
23,G17A G33U C42A,0.04
